Results from PubChem BioAssay AID651820 (National Center for Advancing Translational Sciences (NCATS), 2012).
About 12,000 (3.5%) of roughly 340,000 compounds were called active. The shares of active, inactive and inconclusive entries below differ from those in the screen. Calls follow the shape of the dose curve; as a rule, active = well fitted inhibition curve with a large enough effect; inconclusive = small, poorly fitted or top-dose-only effect, or another doubt; inactive = no such curve, though single readings can be large or run the other way. No potency is given beside an inconclusive call; the fits are too rough.

Test: qHTS Assay for Inhibitors of Hepatitis C Virus (HCV)
Details: Huh7.5.1 HCVcc-Cre (HCVcc is cell-culture hepatitis C virus) infection, luciferase reporter, 44 h; activity change, negative = inhibition: at 41.8 µM (top of the series) unless noted
Procedure, shortened: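 Whole-lifecycle infectious HCVcc-Cre system; cells 1,000/well, compound then virus (~0.5 moi) added 4 h after plating, 44 h culture. Luciferase read 15 sec following 15 min substrate incubation, room temp.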
% is scaled to controls: 0 for no effect and ±100 for the full control effect; potency is read from the fitted curve at half-maximal effect; tags tell the direction and shape of the fitted curve.

| SMILES | Potency | activity change, negative = inhibition |
| --- | --- | --- |
| COc1cc(C(=O)NNC(=S)NC(=O)c2ccccc2C)cc(OC)c1OC | inconclusive [inhibitor, partial curve] | – |
| Cc1ccccc1NC1=NC(=S)N(c2ccccc2)C12CCOC(C)(C)C2 (stereo not given) | – | inactive: 1.23% |
| Cc1cc(C)c(NC(=O)CS(=O)CC(=O)N2CCN(c3cccc(C)c3C)CC2)c(C)c1 (stereo not given) | inconclusive [inhibitor, single point] | – |
| Cc1nc2ccc(NC(=O)c3cccc(C(F)(F)F)c3)cc2o1 | inconclusive [inhibitor, partial curve, poor fit] | – |
| Cc1ccc2c(c1)[nH]c1c(N3CCN(Cc4ccccc4)CC3)ncnc12 | active: 3.16 µM | – |
| COc1ccc(C(=O)N2CCN(Cc3cn[nH]c3-c3ccc(OC)cc3F)CC2)cc1 | inconclusive [inhibitor, partial curve] | – |
| CCCCn1c(-c2nonc2N)nc2ccccc21 | inconclusive [inhibitor, partial curve] | – |
| CC(C)c1nc(SCC(=O)N2CCCCCC2)c2c(=O)n(C)c(=O)n(C)c2n1 | inconclusive [inhibitor, partial curve] | – |
| O=C(Cc1c(F)c(F)c(F)c(F)c1F)Nc1nc(-c2ccccc2)cs1 | inconclusive [inhibitor, single point] | – |
| CN1CCc2c(sc(/N=C/c3cccs3)c2C(N)=O)C1 | – | inactive: -23.3% |
| COc1cc(/C=N/NC(=O)c2ccc(O)cc2)ccc1Oc1ccc([N+](=O)[O-])cn1 | inconclusive [inhibitor, single point] | – |
| COCC(C)n1c(C)cc(C(=O)CSc2nnc(-c3ccco3)o2)c1C (stereo not given) | inconclusive [inhibitor, single point] | – |
| COc1cc(SC)ccc1C(=O)N1CCN(Cc2ccccc2)CC1 | active: 25.1 µM | – |
| c1coc(CNc2nc(N3CCCCC3)nc3ccccc23)c1 | inconclusive [inhibitor, single point] | – |
| COc1ccc(Oc2nc3c(c(=O)n(C)c(=O)n3C)n2Cc2cccc(OC)c2)cc1 | – | inactive: 14.7% |
| CN(C)c1ccc(/C=C/c2ccc3c4ccccc4ccc3[n+]2-c2ccccc2)cc1 | active: 1 µM | – |
| Cc1ccc(N(CC(=O)NCc2ccccc2)C(=O)CCC(=O)Nc2nccs2)cc1 | – | inactive: 4.55% |
| COC(=O)c1cc(OC)c(OC)cc1NC(=O)CSc1ccccc1 | inconclusive [inhibitor, partial curve] | – |
| N#Cc1c2n(c(=S)n(-c3ccccn3)c1=O)CCCCC2 | – | inactive: 16% |
| N#Cc1cc(Oc2cccc3cccnc23)c(-n2nnc3ccccc32)cc1C#N | inconclusive [inhibitor, partial curve] | – |
| CCn1c2ccccc2c2cc(C3C(C#N)=C(N)Oc4n[nH]c(COC)c43)ccc21 (stereo not given) | inconclusive [inhibitor, single point] | – |
| CCCOc1ccc(N2C(=O)CC(N(CCc3ccc(OC)c(OC)c3)C(=S)Nc3ccccc3)C2=O)cc1 (stereo not given) | – | inactive: -19% |
| O=C(CCN1C(=O)COc2ccccc21)N1CCCCC1 | – | inactive: -6.45% |

| SMILES | Potency | activity change, negative = inhibition |
| --- | --- | --- |
| CCCC[C@H]1COCCS(=O)(=O)N1Cc1cccc([N+](=O)[O-])c1 | – | inactive: -4.86% |
| COCCNC(=S)N1CCc2cc(OC)c(OC)cc2C1COc1cc(C)cc(C)c1 (stereo not given) | inconclusive [inhibitor, single point] | – |
| N#CC1=C(N)Oc2c(O)cc3ccccc3c2C1c1ccsc1 (stereo not given) | – | inconclusive: -73.8% [inhibitor] |
| Cc1cccc(NC(=O)c2ccc(NC(=O)c3ccccc3Br)cc2)c1 | inconclusive [inhibitor, partial curve] | – |
| CCOC(=O)c1sc2nccc(N(C)C)c2c1N=CN(C)C | inconclusive [inhibitor, partial curve] | – |
| CC1Sc2ccc(S(=O)(=O)N3CCC(C(=O)NCc4ccc(Cl)cc4)CC3)cc2NC1=O (stereo not given) | inconclusive [inhibitor, single point] | – |
| CN1CC(c2ccccc2)C2(SC(=S)N(Cc3ccco3)C2=O)C12C(=O)Nc1ccccc12 (stereo not given) | active: 7.08 µM | – |
| CCOC(=O)N1CCN(c2ncnc3scc(-c4ccc(Cl)cc4)c23)CC1 | inconclusive [inhibitor, partial curve] | – |
| O=c1cc(-c2ccccc2)oc2cc(O)cc(O)c12 | – | inactive: -18.7% |
| N#CCC(=O)Nc1ccc(C(=O)OCC(=O)NC(=O)Nc2ccc3c(c2)OCCO3)cc1 | inconclusive [inhibitor, single point] | – |
| CCc1nc2ccccc2c(C(=O)OC2CCCCC2=O)c1C (stereo not given) | inconclusive [inhibitor, single point] | – |
| CCOc1ccc(-n2c(C)cc(C(=O)CCl)c2C)cc1 | inconclusive [inhibitor, single point] | – |
| CCCc1nc2ccccc2c(C(=O)OCC(=O)N2CCc3ccccc32)c1CC | active: 8.91 µM | – |
| COc1ccc(OC)c(C(=O)c2ccc(C(=O)c3cc(OC)ccc3OC)cc2)c1 | inconclusive [inhibitor, single point] | – |
| Cc1cc(C(=O)N/N=C/c2cc(Br)ccc2OC(=O)c2ccccc2)n[nH]1 | inconclusive [inhibitor, single point] | – |
| C/C(=N\Nc1ccc(S(N)(=O)=O)cc1[N+](=O)[O-])c1ccco1 | – | inactive: -29.3% |
| CCOC(=O)[C@H]1[C@H]2COc3cc(OC)ccc3[C@@H]2N2C(=O)c3c(C)cc(C)cc3NC(=O)[C@@]12C | inconclusive [inhibitor, partial curve] | – |
| COCCC(=O)N1CCc2ccc(NC(=O)c3ccc(C(F)(F)F)cc3)cc2C1 | active: 10 µM | – |
| CN(c1ccccc1)c1nc2ccsc2c(=O)s1 | inconclusive [inhibitor, single point] | – |
| CCCCCCNC(=O)Cc1ccc(Br)cc1 | inconclusive [inhibitor, single point] | – |
| N/C(=N\OC(=O)COc1ccc(Br)cc1)c1cccc([N+](=O)[O-])c1 | – | inactive: 18.8% |
| COc1ccc(C(C(=O)NC2CCCCC2)N(Cc2cccs2)C(=O)Cc2c[nH]c3ccccc23)cc1 (stereo not given) | inconclusive [inhibitor, single point] | – |
